Reference: PubChem BioAssay AID504937 (National Center for Advancing Translational Sciences (NCATS), 2011)
Among all 340,000 compounds or so, about 20 (0.006%) were called active. The shares of active, inactive and inconclusive entries below differ from those in the screen. The call rests on the fitted dose curve; in most records, active means well fitted inhibition curve with a large enough effect; inconclusive means small, poorly fitted or top-dose-only effect; inactive means no such curve, though single readings can be large or run the other way. A potency beside an inconclusive call is a rough fit, not a confirmed value.
Potency means the concentration at half of the fitted maximal effect; tags describe the fitted curve by direction and shape.

These molecules were tested against Sphingomyelin phosphodiesterase (Homo sapiens) (UniProt P17405) (assay: Inhibitors of Secretory Acid Sphingomyelinase (S-ASM): qHTS). Conditions: placental ASM, HMU-PC fluorogenic substrate (series up to 57.5 µM), 60 min.
Chain of UniProt P17405 (P17405 whole entry, looked up): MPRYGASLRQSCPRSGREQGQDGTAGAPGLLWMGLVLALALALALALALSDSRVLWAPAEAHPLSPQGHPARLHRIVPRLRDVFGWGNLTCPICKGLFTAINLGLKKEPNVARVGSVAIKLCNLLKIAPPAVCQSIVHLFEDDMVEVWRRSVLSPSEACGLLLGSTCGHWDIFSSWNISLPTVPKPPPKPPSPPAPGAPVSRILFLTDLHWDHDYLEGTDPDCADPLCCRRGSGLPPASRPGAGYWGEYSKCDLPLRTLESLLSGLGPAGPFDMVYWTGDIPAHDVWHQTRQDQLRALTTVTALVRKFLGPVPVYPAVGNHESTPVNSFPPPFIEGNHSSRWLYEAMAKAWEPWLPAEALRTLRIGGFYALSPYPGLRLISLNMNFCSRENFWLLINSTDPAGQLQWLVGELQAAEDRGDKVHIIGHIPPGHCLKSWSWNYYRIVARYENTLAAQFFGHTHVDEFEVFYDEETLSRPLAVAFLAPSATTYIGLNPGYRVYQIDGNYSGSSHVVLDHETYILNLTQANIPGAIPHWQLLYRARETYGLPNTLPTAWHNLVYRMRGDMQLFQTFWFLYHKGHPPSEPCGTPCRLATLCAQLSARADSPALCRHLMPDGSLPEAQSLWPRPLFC
Outline: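 Human placenta-derived ASM enzyme was preincubated with compound for 10 minutes at room temperature, then given fluorogenic substrate HMU-PC0 (9 uM final) for 60 minutes at 37 °C; a pH 10 stop preceded fluorescence reading at Ex 386/Em 447 nm.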
For `COc1ccc2cc(C(C)c3nc4ccccc4c(=O)n3N)ccc2c1` (stereo not drawn), the Potency was inconclusive: 70.8 µM [inhibitor, partial curve, poor fit]. `CCN1CCN(Cc2ccc(NC(=O)c3cc(NC(=O)c4cncc(-c5cccs5)c4)cc(OC)c3)cc2C(F)(F)F)CC1` was tested, and the Potency was inconclusive: 100 µM [inhibitor, partial curve, poor fit]. `COCCCNC(=O)C[C@H]1C[C@H](C(=O)N2CCCCC2)[C@@]2(CCc3ccccc3)c3[nH]c4cc(-c5ccco5)ccc4c3CCN2C1=O` was tested, and the Potency was inconclusive: 15.8 µM [inhibitor, partial curve, poor fit]. With `CCc1nc(NCc2ccc3c(c2)OCO3)c2oc3ccccc3c2n1` the Potency was inconclusive: 282 µM [inhibitor, partial curve, poor fit]. For `CN(CC(=O)Nc1ccc(Cl)c(C(F)(F)F)c1)C(=O)CCCc1nc2ccccc2c(=O)[nH]1`, the Potency was “inactive”. `Cn1c(=O)n(C/C=C/c2ccccc2)c(=O)c2c1nc1n2CCCN1Cc1ccccc1` was tested, and the Potency was inconclusive: 1780 µM [inhibitor, partial curve, poor fit]. `Cc1ccc(-c2n[nH]c(=O)c3ccccc23)cc1S(=O)(=O)Nc1ccccc1` was tested, and the Potency was inconclusive: 355 µM [inhibitor, partial curve, poor fit]. With `COC(=O)C1=C(C)N(Cc2ccccc2)C(=NCCc2cccnc2)N[C@H]1c1ccccc1` the Potency was “inactive”. For `CSc1cccc(CN2CCC(Oc3ccc(C(=O)N4CCCCC4)cc3)CC2)c1`, the Potency was “inactive”. With `Cc1ccc(C(=O)O)cc1N1C(=O)c2cccc3c([N+](=O)[O-])ccc(c23)C1=O` the Potency was “inactive”. For `COc1cc(S(=O)(=O)Nc2ccc3c(c2)C(=O)N(C)C3=O)ccc1NC(C)=O`, the Potency was “inactive”. For `COc1cc(/C=C2\C(=N)N3N=C(S(C)(=O)=O)SC3=NC2=O)ccc1OS(=O)(=O)c1ccc(C)cc1`, the Potency was inconclusive: 63.1 µM [inhibitor, partial curve]. `COc1cc(CNC2CCCCCC2)cc(OC)c1OC` was tested, and the Potency was “inactive”. In the case of `Cc1cc2ccccn2c1C(=O)c1nc(NCc2ccco2)ncc1Cl`, the Potency is reported as inconclusive: 112 µM [inhibitor, partial curve, poor fit]. In the case of `COc1ccc(C2=NN(C(=O)CSc3ncccn3)C(c3ccc(C)cc3)C2)cc1` (stereo not drawn), the Potency is reported as inconclusive: 355 µM [inhibitor, partial curve, poor fit]. `O=C(N/N=C/C(Br)=C/c1ccccc1)c1ccccc1F` was tested, and the Potency was “inactive”. `COc1ccc(-c2noc(N3CCC(C(=O)Nc4cc(OC)ccc4OC)CC3)n2)cc1` was tested, and the Potency was inconclusive: 100 µM [inhibitor, partial curve, poor fit]. In the case of `Cc1c(/N=C/c2ccco2)n(Cc2ccccc2)c2ccccc12`, the Potency is reported as inconclusive: 200 µM [inhibitor, partial curve, poor fit]. In the case of `CCOC(=O)N1CCN(C(=S)NC(C)(C)C)CC1`, the Potency is reported as “inactive”. In the case of `COc1cccc(NC(=O)c2ccccc2-c2nc(-c3cccc(C)c3)no2)c1`, the Potency is reported as inconclusive: 200 µM [inhibitor, partial curve, poor fit]. For `CCn1c2ccccc2c2cc(NC(=O)COc3ccccc3)ccc21`, the Potency was inconclusive: 447 µM [inhibitor, partial curve, poor fit]. In the case of `FC(F)Oc1ccc(/C=N/c2c(-c3ccc(OC(F)F)cc3)nc3n2CCS3)cc1`, the Potency is reported as inconclusive: 282 µM [inhibitor, partial curve, poor fit]. In the case of `COc1cc(/C=C2\SC(=S)N(NC(=O)c3ccccc3O)C2=O)ccc1O`, the Potency is reported as inconclusive: 56.2 µM [inhibitor, partial curve, poor fit]. `COc1ccc(CNS(=O)(=O)c2ccc(-c3cnc(C4CC4)o3)cc2)cc1` was tested, and the Potency was inconclusive: 112 µM [inhibitor, partial curve, poor fit]. `OCCCn1c(C2CCCN2c2nc(-c3ccc(Cl)cc3)cs2)nc2cc(Cl)c(Cl)cc21` (stereo not drawn) was tested, and the Potency was inconclusive: 70.8 µM [inhibitor, partial curve, poor fit]. With `CCOc1ccccc1NC(=O)c1cc(SC)ccc1Cl` the Potency was “inactive”. `C/C(=N/NS(=O)(=O)c1ccc(Br)cc1)c1ccc(NC(=O)c2ccc(C)o2)cc1` was tested, and the Potency was inconclusive: 562 µM [inhibitor, partial curve, poor fit]. With `Clc1cccc(Cl)c1/C=N/Nc1c(Cl)cncc1Cl` the Potency was inconclusive: 70.8 µM [inhibitor, partial curve, poor fit]. With `COc1ccc(-c2noc(CCC(=O)Nc3cc(Cl)c(OC)cc3OC)n2)cc1` the Potency was inconclusive: 50.1 µM [inhibitor, partial curve, poor fit]. `N#C/C(=C\c1cccc([N+](=O)[O-])c1)C(=O)NCc1ccc(Cl)cc1` was tested, and the Potency was inconclusive: 708 µM [inhibitor, partial curve, poor fit]. `Cc1ccc(OCC(=O)N/N=C\c2cn(C)c3ccccc23)c([N+](=O)[O-])c1` was tested, and the Potency was inconclusive: 112 µM [inhibitor, partial curve]. For `COc1ccc(-c2cc([C@H]3[C@H]4C=CC[C@@H](C)[C@@H]4C(=O)N3Cc3ccccc3)ccc2F)cc1`, the Potency was inconclusive: 891 µM [inhibitor, partial curve, poor fit]. For `CCOC(=O)c1c(C2COc3ccccc3O2)csc1N` (stereo not drawn), the Potency was inconclusive: 282 µM [inhibitor, partial curve, poor fit]. `Cc1cccc(Nc2nc(-c3sc(C)nc3C)cs2)c1` was tested, and the Potency was “inactive”. `CC(/C=C1\SC(=O)N(CC(=O)Nc2ccc(O)cc2)C1=O)=C\c1ccccc1` was tested, and the Potency was “inactive”. With `O=C(O)c1ccccc1NS(=O)(=O)c1ccc(N/N=C/c2ccc(O)c(O)c2)c([N+](=O)[O-])c1` the Potency was inconclusive: 89.1 µM [inhibitor, single point]. With `O=c1[nH]c(=O)n(C(c2ccccc2)(c2ccccc2)c2ccccc2)cc1N(CCO)CCO` the Potency was “inactive”. `FC(F)(F)c1ccc(N2CCOCC2)c(Nc2nc3ccccc3n3cnnc23)c1` was tested, and the Potency was inconclusive: 126 µM [inhibitor, partial curve, poor fit]. For `CCS(=O)(=O)C1=NN2C(=N)/C(=C\c3ccc(SCc4ccco4)o3)C(=O)N=C2S1`, the Potency was inconclusive: 100 µM [inhibitor, partial curve, poor fit]. `C[C@H](CO)N1C[C@H](C)[C@@H](CN(C)C(=O)Nc2ccc(C(F)(F)F)cc2)Oc2ccc(NC(=O)Nc3ccc(C(F)(F)F)cc3)cc2C1=O` was tested, and the Potency was inconclusive: 79.4 µM [inhibitor, partial curve, poor fit]. `O=C(Nc1ccc2cccnc2c1)c1ccc(Br)cc1` was tested, and the Potency was inconclusive: 355 µM [inhibitor, partial curve, poor fit]. In the case of `C=CCN(c1ccccc1)S(=O)(=O)c1cccc(C(=O)NCC(c2ccccc2OC)N2CCCC2)c1` (stereo not drawn), the Potency is reported as “inactive”. With `CC(=O)Nc1cccc(NC(=O)CSc2ncc(-c3ccc(Cl)cc3)n2Cc2ccco2)c1` the Potency was inconclusive: 89.1 µM [inhibitor, single point]. In the case of `Cc1ccc(Nc2nc(CSc3nnc(-c4cccs4)o3)cs2)cc1`, the Potency is reported as inconclusive: 200 µM [inhibitor, partial curve, poor fit]. For `CC(Oc1ccc(F)cc1)C(=O)Nc1ccccc1C(=O)N1CCCCC1` (stereo not drawn), the Potency was “inactive”. In the case of `N#CC1=C(N)SC(N)=C(C#N)C1c1cccc(Oc2ccccc2)c1`, the Potency is reported as “inactive”. For `O=C(Nc1ccccc1)C1=C[C@@H](c2coc3ccccc3c2=O)C[C@@H](OCc2ccc(CO)cc2)O1`, the Potency was inconclusive: 100 µM [inhibitor, single point]. With `COc1ccc(N2CCN(C(c3cc4ccc(C)cc4[nH]c3=O)c3nnnn3C3CCCC3)CC2)cc1` (stereo not drawn) the Potency was inconclusive: 126 µM [inhibitor, partial curve, poor fit]. For `O=C(Cn1c(=O)c2cccn2c2cccnc21)N1CCN(c2ccc(Cl)cc2)CC1`, the Potency was inconclusive: 282 µM [inhibitor, partial curve, poor fit]. `O=C(COC(=O)[C@H](Cc1c[nH]c2ccccc12)NC(=O)c1ccc(Cl)cc1)Nc1ccc2c(c1)OCO2` was tested, and the Potency was inconclusive: 70.8 µM [inhibitor, partial curve, poor fit]. With `Oc1ccc(C[C@H]2CNC(=S)N2CC2CCCN2C[C@H](Cc2ccc(O)cc2)N2C[C@H](Cc3ccc(O)cc3)N(CC3CCCCCC3)C2=S)cc1` (stereo partly drawn) the Potency was inconclusive: 44.7 µM [inhibitor, partial curve]. `O=[N+]([O-])c1ccc2[nH]c(O)c(N=NC(=S)Nc3cccnc3)c2c1` was tested, and the Potency was inconclusive: 316 µM [inhibitor, partial curve, poor fit]. In the case of `COc1cccc2c1[C@@H]1CN(CCCCn3c(=O)[nH]c4c(sc5ncc(-c6ccccc6)nc54)c3=O)C[C@@H]1CO2`, the Potency is reported as inconclusive: 112 µM [inhibitor, partial curve, poor fit]. `CCCNC(=O)c1ccc(N2CCC3(CC2)CC(c2ccccc2)=NO3)c(NC(=O)c2ccco2)c1` was tested, and the Potency was inconclusive: 355 µM [inhibitor, partial curve, poor fit]. With `C/C(=N\NC(=O)c1ccc(O)cc1)c1ccc2c(c1)Nc1ccccc1S2` the Potency was inconclusive: 89.1 µM [inhibitor, partial curve, poor fit]. With `O=C(Nc1cccc(C(=O)Nc2cccc(Br)c2)c1)c1ccccc1` the Potency was inconclusive: 1120 µM [inhibitor, partial curve, poor fit]. In the case of `CC(OC(=O)C1=Cc2ccccc2OC1)C(=O)NC1CCCC1` (stereo not drawn), the Potency is reported as “inactive”. `CCOC(=O)N1CCC(N2Cc3cccc(C(=O)NC(C)c4ccc5c(c4)OCCO5)c3C2=O)CC1` (stereo not drawn) was tested, and the Potency was “inactive”.
